Data from PubChem BioAssay AID1645887 (National Center for Advancing Translational Sciences (NCATS), 2021).
“And” between values parts separate entries of the source, which are not always exact repeats. Identical values can stand only once. Among all 16,000 compounds or so, about 40 (0.2%) were called active. Roughly 1% stayed inconclusive and do not appear here. Calls come from the whole dose curve; as a rule, active = well fitted activation curve with a large enough effect; inconclusive = small, poorly fitted or top-dose-only effect, or another doubt; inactive = no such curve, though single readings can be large or run the other way. Some of the results follow. Positions of bridges follow the written chain, without caps; N, C: chain ends. Non-standard residues stand in square brackets, D forms with d. Residues, ends and D or L forms follow the SMILES beside them. Orn = NCCC[C@H](N)C(=O)O; Mpa = O=C(O)CCS

Target: Rap guanine nucleotide exchange factor 4 (Homo sapiens) (UniProt Q8WZA2)
Assay: Validation qHTS for agonist of cAMP-regulated guanine nucleotide exchange factor 4 (EPAC2);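 note: exchange makes BODIPY-GDP fluorescence drop when released from Rap1B; series mostly up to about 150 µM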
Conditions: EPAC2 Rap1B BODIPY-GDP exchange, fluorescence; activation: stronger effect = higher value
In short: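 Fluorescent exchange assay: 100 nM EPAC2 with 250 nM RAP1B-BODIPY-GDP and 50 uM GDP; compound added, 5 min at room temperature, then read (ex 480/em 540 nm) every 5 min for 30 min. Normalized to 6.5 mM cAMP agonist control.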
% is set by controls: 0 for no effect and ±100 for the full control effect.

Sequence of UniProt Q8WZA2 (Q8WZA2 whole entry, looked up): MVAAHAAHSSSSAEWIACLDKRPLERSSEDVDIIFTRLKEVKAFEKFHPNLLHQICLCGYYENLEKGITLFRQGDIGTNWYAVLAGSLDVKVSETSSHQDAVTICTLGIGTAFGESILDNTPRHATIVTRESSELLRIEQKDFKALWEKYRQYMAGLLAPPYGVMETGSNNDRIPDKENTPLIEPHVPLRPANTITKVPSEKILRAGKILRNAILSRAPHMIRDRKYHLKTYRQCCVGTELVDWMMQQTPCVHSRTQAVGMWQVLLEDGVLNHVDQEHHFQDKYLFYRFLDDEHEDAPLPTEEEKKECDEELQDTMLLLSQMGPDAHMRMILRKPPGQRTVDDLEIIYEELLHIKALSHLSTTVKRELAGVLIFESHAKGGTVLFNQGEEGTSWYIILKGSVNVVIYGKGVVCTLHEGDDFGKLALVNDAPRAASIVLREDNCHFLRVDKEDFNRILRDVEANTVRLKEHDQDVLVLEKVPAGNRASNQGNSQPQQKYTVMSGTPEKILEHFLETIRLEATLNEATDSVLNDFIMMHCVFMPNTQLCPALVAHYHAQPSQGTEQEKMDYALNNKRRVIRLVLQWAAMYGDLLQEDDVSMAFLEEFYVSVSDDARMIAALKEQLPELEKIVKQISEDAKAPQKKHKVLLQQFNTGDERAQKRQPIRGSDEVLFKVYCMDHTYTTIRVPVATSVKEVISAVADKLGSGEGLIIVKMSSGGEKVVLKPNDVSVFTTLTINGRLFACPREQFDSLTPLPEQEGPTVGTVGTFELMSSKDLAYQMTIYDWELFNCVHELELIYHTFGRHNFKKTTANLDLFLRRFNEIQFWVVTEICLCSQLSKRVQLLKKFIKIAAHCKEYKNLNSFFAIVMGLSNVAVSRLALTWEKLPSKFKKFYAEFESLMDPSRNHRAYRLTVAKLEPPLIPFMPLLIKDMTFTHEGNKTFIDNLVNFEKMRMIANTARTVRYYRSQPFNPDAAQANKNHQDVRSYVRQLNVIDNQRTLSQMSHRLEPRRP

activation, inactive:
CCOc1ccc(C[C@H]2NC(=O)CCSSC[C@@H](C(=O)N3CCC[C@H]3C(=O)N[C@@H](CCCN)C(=O)NCC(N)=O)NC(=O)[C@H](CC(N)=O)NC(=O)[C@H]([C@@H](C)O)NC(=O)[C@H]([C@@H](C)CC)NC2=O)cc1 ([Mpa][dY](Et)ITNCP[Orn]G-NH2; disulfide 1-6) 0.339%
H-EQKQLQ-OH 1.76%
Cc1noc(C)c1-c1nccc(N(C)C)n1 -13.8%
COc1ccc(-c2coc3ccc(OC4OC(COC(C)=O)C(OC(C)=O)C(OC(C)=O)C4OC(C)=O)c(OC(C)=O)c3c2=O)cc1 (stereo not given) -17.1%
COc1cc(-c2ccc(-[n+]3nc(-c4ccccc4)nn3-c3ccc([N+](=O)[O-])cc3)c(OC)c2)ccc1-[n+]1nc(-c2ccccc2)nn1-c1ccc([N+](=O)[O-])cc1 -6.4%
COc1cc(N)c(Cl)cc1C(=O)N[C@H]1CCN(CCCOc2ccc(F)cc2)C[C@@H]1OC -25.9%
CCOC(=O)c1c(C)cc(O)cc1O -9.12%
CN(C)CCCN1c2ccccc2Sc2ccc(Cl)cc21 4.79% and -8.89% and 2.9%
CCCC1(C)C(C#N)(C#N)C1(C#N)C#N -2.01%
O=C(c1ccco1)N1CCC2(CC1)CN(C(c1ccccc1)c1ccccc1)C2 -1.08%
CCCCCCCCCCCCCCCCOC[C@H](COP(=O)([O-])OCC[N+](C)(C)C)OC(=O)NC -4.58%
O=C(NCCc1nnc2n1CCN(Cc1ccc(F)cc1)CC2)c1ccc(F)cc1 -19%
COc1ccccc1N1CCN(CCCCN2C(=O)CCC2=O)CC1 -12% and 6.17%
C[N+]1(CC(=O)c2ccc(F)cc2)CCc2ccccc2C1 (stereo not given) -10.1%
CC(=O)N1CCC[C@H]1C(=O)NCC1Cc2cc(F)cc(-c3ccc(F)c(C)c3)c2O1 (stereo not given in full) -18.9%
CCCCOc1cc(CC2CNC(=O)N2)ccc1OC (stereo not given) -13.5% and -4.21% and -11.5%
Cc1cccc(CNc2ccnc(-c3ccccc3CN(C)C)n2)c1 -13.9%
CC(=O)OC1C[C@]2(C)C(C(C)=O)CCC2C2CCC3=CC(=O)CC[C@@]3(C)C12 (stereo not given in full) -12.4%
O=C1NC(=O)/C(=C/c2ccc3c(c2)OC(F)(F)O3)S1 -11.6%
COc1cc(-c2noc(C)c2C#Cc2ccsc2)cc(OC)c1OC -10.2%
CN(C)c1ncc2ncc(=O)n(Cc3cccs3)c2n1 -8.5%
N[C@@H](CCS(=O)O)C(=O)O -8.06% and 4.82%
O=c1[nH]cnc2c1ncn2[C@@H]1O[C@H](CO)[C@@H](O)[C@H]1O -17.8%
CC(C)NC(=O)N1CC[C@@]2(CCCN(S(=O)(=O)c3ccccc3)C2)C1 -5.62%
COc1cc2c(cc1O)CCN[C@]21CS[C@@H]2c3c(OC(C)=O)c(C)c4c(c3[C@H](COC1=O)N1[C@@H]2[C@H]2c3c(cc(C)c(OC)c3O)C[C@@H]([C@@H]1O)N2C)OCO4 -34.6% and -15%
COc1ccc(Oc2ncc3nc(-c4ccccc4)c(=O)n(C[C@H]4CCCO4)c3n2)cc1 1.71%
C[C@@H]1CN(Cc2ccc3c(c2)CN(Cc2cccn2-c2ccc(Cl)cn2)CCO3)C[C@H](C)O1 -13.3%
COC(=O)c1sccc1S(=O)(=O)N1CCC(n2c(CC3CCCC3)nc3cccnc32)CC1 -8.2%
Nc1nc(Nc2ccccc2)nc2c1ncn2[C@@H]1O[C@@H](CO)[C@H](O)[C@H]1O -31.9%
COC(=O)[C@@H]1C[C@H](NC(=O)c2ccccc2C(F)(F)F)CN1Cc1cccc(O)c1 -9.41%
Cc1ccccc1-c1nccc(NCc2cccnc2)n1 -10.5%
COc1cccc(Cn2c(=O)c(-c3cccs3)nc3cnc(Nc4cccc(OC)c4)nc32)c1 4.15%
O=C(C[n+]1ccnc2ccccc21)c1ccc(Cl)cc1 -16.5%
COc1ccnc(CS(=O)c2nc3ccc(OC(F)F)cc3[nH]2)c1OC (stereo not given) 4.36%
CC[C@@H]1[C@H]2CCCC(=O)N3CC[C@@H](C[C@H]1O)[C@@H]23 -8.94%
O=C(NCCN1Cc2ccccc2OC(c2ccccc2F)C1)c1ccco1 (stereo not given) -16.6%
COc1cc2c(cc1OC)C(/C=C/c1ccc(OC)c(OC)c1OC)=NCC2 -14.1%
O=C(c1cnccn1)N1CCC2(CC1)CCN(c1cccc(-c3ccccc3)c1)CC2 -15.8%
Cc1ccc(CN2CCc3nnc(C(C)NC(=O)c4cc(F)ccc4F)n3CC2)o1 (stereo not given) 2.95%
CC(=O)Nc1ccc(SCCN2CC[C@@H](C(C)(C)C)CCC2=O)cc1 -33.7%
COc1cc(CN2CCOc3ccc(CN4CCN(CCO)CC4)cc3C2)ccc1F -17.1%
CCC1C(=O)NCCN1Cc1ccc2c(c1)CN(Cc1cccc(OC)c1)CCO2 (stereo not given) 6.63%
CN(C(=O)c1c(O)c2ccccc2n(C)c1=O)c1ccccc1 -10.5%
OCc1ccccn1 -9.48%
O=C(Oc1ccccc1)N1CCC2(CC1)CCN(c1ccccn1)CC2 -30.6%
COc1cc(-c2cc(C)c3c(OC)ccc(OC)c3n2)cc2c1OCCN(Cc1cn(C)nc1C)C2 3.45%
COc1cc(=O)n2c(c1C(=O)N(C)C(C)c1ccco1)CCN(C(=O)c1ccc(C(C)=O)cc1)CC2 (stereo not given) 9.38%
COc1ccc2c(c1)OC(C)CN(CCNC(=O)c1cccc(N3CCNC3=O)c1)C2 (stereo not given) -7.46%
O=C(NCCc1nnc2n1CCN(Cc1ccccn1)CC2)c1ccc(F)cc1 -1.81%
CCS(=O)(=O)Nc1cc(C(=O)N2CCCN(C=O)CC2)c2c(c1)nc(-c1ccccc1)n2C -2.52%
